Here are results for one molecule from the supplement of paper PMC8728848.

The other results are listed elsewhere or left out.

Holding throughout (experiment): glycan array binding signal (z-score within array); higher = stronger binding
Conditions in all cases: glycan notation: IUPAC condensed, linker removed

Test [1] deals with Gal(b1-4)GlcNAc(b1-2)Man(a1-3)Man(b1-4)GlcNAc(b1-4)GlcNAc. The essentials: (§1)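 Glycan array data came from 3228 arrays in the Consortium for Functional Glycomics database, and only arrays with an available protein sequence were kept. Glycan names were put into IUPAC-condensed notation, and columns mapping to the same glycan were averaged. The binding signal is a within-array Z-score, averaged across arrays of one protein sequence run at different concentrations or buffers and across linkers. A negative Z-score can be read as non-binding.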

Test [2] has as its target Gal(b1-4)GlcNAc(b1-2)Man(a1-3)[Gal(b1-4)GlcNAc(b1-2)Man(a1-6)]Man(b1-4)GlcNAc(b1-4)GlcNAc. In short, it runs like this: as §1
Test [3] addresses Gal(b1-4)GlcNAc(b1-2)Man(a1-3)[Gal(b1-4)GlcNAc(b1-2)Man(a1-6)]Man(b1-4)GlcNAc(b1-4)[Fuc(a1-6)]GlcNAc. In short, it runs like this: as §1
For test [4], the target named is Gal(b1-4)GlcNAc(b1-2)Man(a1-3)[Gal(b1-4)GlcNAc(b1-2)Man(a1-6)][Gal(b1-4)GlcNAc(b1-4)]Man(b1-4)GlcNAc(b1-4)[Fuc(a1-6)]GlcNAc. In short, it runs like this: as §1
Test [5] concerns the target Gal(b1-4)GlcNAc(b1-2)Man(a1-3)[Gal(b1-4)GlcNAc(b1-2)Man(a1-6)][GlcNAc(b1-4)]Man(b1-4)GlcNAc(b1-4)[Fuc(a1-6)]GlcNAc. The essentials: as §1
The target in test [6] is Gal(b1-4)GlcNAc(b1-2)Man(a1-3)[GlcNAc(b1-2)Man(a1-6)]Man(b1-4)GlcNAc(b1-4)GlcNAc. The essentials: as §1
The target of test [7] is Gal(b1-4)GlcNAc(b1-2)Man(a1-3)[GlcNAc(b1-4)][Gal(b1-4)GlcNAc(b1-2)Man(a1-6)]Man(b1-4)GlcNAc(b1-4)GlcNAc. In short, it runs like this: as §1
In test [8] the target is Gal(b1-4)GlcNAc(b1-2)Man(a1-3)[Man(a1-6)]Man(b1-4)GlcNAc(b1-4)GlcNAc. In short, it runs like this:
as §1

The target in test [9] is Gal(b1-4)GlcNAc(b1-2)Man(a1-6)Man(b1-4)GlcNAc(b1-4)GlcNAc. In short, it runs like this: as §1
In test [10] the target is Gal(b1-4)GlcNAc(b1-2)Man(a1-6)[GlcNAc(b1-2)Man(a1-3)]Man(b1-4)GlcNAc(b1-4)GlcNAc. In short, it runs like this:
as §1

Test [11] addresses Gal(b1-4)GlcNAc(b1-2)Man(a1-6)[GlcNAc(b1-2)Man(a1-3)]Man(b1-4)GlcNAc(b1-4)[Fuc(a1-6)]GlcNAc. The essentials: as §1
Test [12] has as its target Gal(b1-4)GlcNAc(b1-2)Man(a1-6)[Man(a1-3)]Man(b1-4)GlcNAc(b1-4)GlcNAc. In short, it runs like this: as §1
For test [13], the target named is Gal(b1-4)GlcNAc(b1-2)Man(a1-6)[Man(a1-3)]Man(b1-4)GlcNAc(b1-4)[Fuc(a1-6)]GlcNAc. The essentials:
as §1

Test [14] concerns the target Gal(b1-4)GlcNAc(b1-2)[Gal(b1-4)GlcNAc(b1-4)]Man(a1-3)[Fuc(a1-3)[Gal(b1-4)]GlcNAc(b1-2)Man(a1-6)]Man(b1-4)GlcNAc(b1-4)GlcNAc. In short, it runs like this: as §1
In test [15] the target is Gal(b1-4)GlcNAc(b1-2)[Gal(b1-4)GlcNAc(b1-4)]Man(a1-3)[Gal(b1-4)GlcNAc(b1-2)Man(a1-6)]Man(b1-4)GlcNAc(b1-4)GlcNAc. In short, it runs like this: as §1
Test [16] has as its target Gal(b1-4)GlcNAc(b1-2)[Gal(b1-4)GlcNAc(b1-4)]Man(a1-3)[Gal(b1-4)GlcNAc(b1-2)[Gal(b1-4)GlcNAc(b1-6)]Man(a1-6)]Man(b1-4)GlcNAc(b1-4)GlcNAc. In short, it runs like this:
as §1

The target of test [17] is Gal(b1-4)GlcNAc(b1-2)[Gal(b1-4)GlcNAc(b1-4)]Man(a1-3)[GlcNAc(b1-4)][Gal(b1-4)GlcNAc(b1-2)Man(a1-6)]Man(b1-4)GlcNAc(b1-4)GlcNAc. In short, it runs like this: as §1
In test [18] the target is Gal(b1-4)GlcNAc(b1-2)[Gal(b1-4)GlcNAc(b1-4)]Man(a1-3)[GlcNAc(b1-4)][Gal(b1-4)GlcNAc(b1-2)[Gal(b1-4)GlcNAc(b1-6)]Man(a1-6)]Man(b1-4)GlcNAc(b1-4)GlcNAc. The essentials:
as §1

The target of test [19] is Gal(b1-4)GlcNAc(b1-2)[Gal(b1-4)GlcNAc(b1-6)]Man(a1-6)[Gal(b1-4)GlcNAc(b1-2)Man(a1-3)]Man(b1-4)GlcNAc(b1-4)GlcNAc. In short, it runs like this:
as §1

Test [20] has as its target Gal(b1-4)GlcNAc(b1-2)[Gal(b1-4)GlcNAc(b1-6)]Man(a1-6)[Gal(b1-4)GlcNAc(b1-2)Man(a1-3)]Man(b1-4)GlcNAc(b1-4)[Fuc(a1-6)]GlcNAc. The essentials:
as §1

The target in test [21] is Gal(b1-4)GlcNAc(b1-2)[Gal(b1-4)GlcNAc(b1-6)]Man(a1-6)[GlcNAc(b1-4)][Gal(b1-4)GlcNAc(b1-2)Man(a1-3)]Man(b1-4)GlcNAc(b1-4)GlcNAc. In short, it runs like this: as §1
Test [22] addresses Gal(b1-4)GlcNAc(b1-2)[Gal(b1-4)GlcNAc(b1-6)]Man(a1-6)[GlcNAc(b1-4)][Gal(b1-4)GlcNAc(b1-2)[Gal(b1-4)GlcNAc(b1-4)]Man(a1-3)]Man(b1-4)GlcNAc(b1-4)[Fuc(a1-6)]GlcNAc. The essentials:
as §1

B1: CLEC5A (Homo sapiens), Q9NY25 (protein)
chain: MNWHMIISGLIVVVLKVVGMTLFLLYFPQIFNKSNDGFTTTRSYGTVSQIFGSSSPSPNGFITTRSYGTVCPKDWEFYQARCFFLSTSESSWNESRDFCKGKGSTLAIVNTPEKLKFLQDITDAEKYFIGLIYHREEKRWRWINNSVFNGNVTNQNQNFNCATIGLTKTFDAASCDISYRRICEKNAK
Regarding B1, the “glycan array binding signal (z-score)” value in [1] was 0.071; in [2] it was 0.564; in [3] it was -0.287; in test [4], -0.098; in [5] it was -0.253; in test [6], -0.167. Moreover, the “glycan array binding signal (z-score)” value was 0.043 in test [7]; -0.055 in test [8]; -0.125 in test [9]; -0.213 in test [10]; -0.031 in test [11]; 0.189 in test [12]. In addition, the “glycan array binding signal (z-score)” value is 4.98 in [13]; -0.32 in test [14]; -0.208 in [15]; 0.095 in [16]; -0.168 in test [17]; -0.143 in [18]. The “glycan array binding signal (z-score)” value in test [19] is -0.159; in test [20], -0.001; in test [21] it was -0.162; in test [22], -0.167.
